In all, about 420,000 compounds went through this assay and about 64,000 (15%) were called active. The shares of active, inactive and inconclusive entries below differ from those in the screen. The call rests on the fitted dose curve; in most records, active means well fitted inhibition curve with a large enough effect; inconclusive means small, poorly fitted or top-dose-only effect; inactive means flat fitted curve, though single readings scatter. No potency is given beside an inconclusive call; the fits are too rough.
test: qHTS for Inhibitors of human tyrosyl-DNA phosphodiesterase 1 (TDP1): qHTS in cells in absence of CPT; settings: DT40 Tdp1-/- hTDP1 cells, no CPT, ATP luminescence, 48 h; activity change, negative = growth inhibition: at 46.2 µM (top of the series) unless noted; further: nearly all actives have a fitted effect of over 55% in size
How it was run: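 Stably hTDP1-transfected Tdp1-null chicken DT40 cells were treated with library compounds minus camptothecin and grown for at least 48 hr at 37 °C, after which cellular ATP was quantified by luminescence.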
On the % scale 0 is the no-effect control and ±100 the full control effect; potency means the concentration at half of the fitted maximal effect; tags describe the fitted curve by direction and shape.

Compound	Potency	activity change, negative = growth inhibition
Cc1ccc(-n2cc(CN3CCNC(=O)CC3)c(-c3ccc(F)cc3)n2)cc1	inconclusive [inhibitor, single point]	–
Cc1cc(C)c(OCCOCCN2CCCC2)c(C)c1	inconclusive [inhibitor, single point]	–
COc1ccc(Br)cc1/C=N/N1C(=O)CSC1=S	inconclusive [inhibitor, single point]	–
Cc1ccccc1CCNC(=O)C1CCN(c2nc3ccccc3nc2C(F)(F)F)CC1	inconclusive [inhibitor, full curve]	–
CCn1c(CCNC(=O)c2ccc(C)cc2)nnc1SCc1ccc(Cl)c(Cl)c1	active: 23.1 µM	–
COC(=O)C1=C2c3[nH]c4ccccc4c3CCN2C(=O)CC1	inconclusive [inhibitor, single point]	–
CC(=O)c1ccc2c(c1)Cc1cc(C(C)=O)ccc1-2	–	inactive: -19.7%
CCC1CCCCN1C(=O)c1ccc2c(c1)C(=O)N(c1ccc(C)cc1)C2=O (stereo not given)	–	inactive: 5.82%
COc1ccc(NS(=O)(=O)c2ccc3c(c2)CCO3)cc1	inconclusive [inhibitor, partial curve]	–
CN(C)c1ccc(/C=C/c2c(Br)cnc3ccccc23)cc1	inconclusive [inhibitor, single point]	–
Cc1ccccc1NC(=O)CSc1nnc2ccc(-c3ccccn3)nn12	–	inconclusive: -30.2% [inhibitor]
CCn1c(SCC(=O)Nc2oc(-c3ccccc3)c(-c3ccccc3)c2C#N)nnc1-c1ccncc1	inconclusive [inhibitor, single point]	–
COC(c1ccc2c(c1)CN(C(=O)Cn1nc(C)c3ccccc3c1=O)CCO2)C1CCCCC1 (stereo not given)	–	inactive: -17.4%
COc1ccc(Oc2ncc3nc(-c4cn(C)c5ccccc45)c(=O)n(C4CC4)c3n2)cc1	–	inactive: 10.1%
COc1ccc2cc(C#N)c(SCC(=O)Nc3nonc3C)nc2c1	inconclusive [inhibitor, single point]	–
CC(C)(C)OC(=O)N1CCC(C(=O)Nc2cccc(C(=O)NCCc3ccccc3)c2)CC1	active: 14.6 µM	–
COc1cc(CN(C(=O)c2cccc(C)c2)c2ccccn2)cc(OC)c1OC	active: 13 µM	–
O=C(COC(=O)c1cnc(Cl)c(Cl)c1)NCc1cccs1	inconclusive [inhibitor, single point]	–
Cc1ccccc1-n1nc(C)c2cc(C(=O)NC3CC3)sc21	inconclusive [inhibitor, single point]	–
Cc1cc(=O)[nH]c2nnc(-c3ccc(Cl)cc3)n12	inconclusive [inhibitor, single point]	–
CCCCN1C(=O)C(=O)N(CC(=O)c2ccc3c(c2)OCO3)C1=O	–	inactive: -3.87%
COC(=O)c1cc(NC(=O)c2sc3ncn(Cc4cccc(F)c4)c(=O)c3c2C)cc(C(=O)OC)c1	inconclusive [inhibitor, single point]	–
COc1ccc(OC)c(S(=O)(=O)N2CCC(C(=O)N(C)Cc3ccccc3)CC2)c1	–	inconclusive: -30.7% [inhibitor]

Compound	Potency	activity change, negative = growth inhibition
CC(=O)c1ccc(NC(=O)Nc2ccc([N+](=O)[O-])cc2)cc1	–	inactive: 0.411%
O=C(NCc1cccs1)c1cccc(Nc2nc3ccc(Br)cc3[nH]2)c1	inconclusive [inhibitor, single point]	–
NNC(=O)c1oc2nc(-c3ccccc3)cc(-c3ccccc3)c2c1N	inconclusive [inhibitor, partial curve, poor fit]	–
CC(NC(=O)COC(=O)COc1ccc(Cl)cc1)c1ccccc1 (stereo not given)	–	inactive: 0.568%
O=S(=O)(NC1CCCCCCC1)c1cccs1	inconclusive [inhibitor, partial curve]	–
COc1ccccc1N1CCC(N2CCN(CC(C)(C)C)C(CCO)C2)CC1 (stereo not given)	–	inactive: -21.9%
CCOC(=O)c1c(O)c(O)c(C(=O)OCC)n1-c1ccccc1	–	inconclusive: -33.4% [inhibitor]
CCCCCCCC/C=C\CCCCCCCC(=O)OC[C@@H](O)[C@H]1OC[C@H](O)[C@H]1O	–	inactive: 2.6%
CCOc1ccc(N2CC(C(=O)OCC(=O)c3ccc(OC)cc3)CC2=O)cc1 (stereo not given)	inconclusive [inhibitor, single point]	–
CC(=O)Oc1ccc(/C=N/NC(=O)CCSc2ccccc2)cc1	active: 18.4 µM	–
CSC1=NCCN1C(=O)c1ccc(S(=O)(=O)N2CCCCC2)cc1	inconclusive [inhibitor, single point]	–
COC(=O)c1ccc(N2CCN(CC(=O)c3ccc(-c4ccccc4)cc3)CC2)c([N+](=O)[O-])c1	inconclusive [inhibitor, partial curve]	–
COc1ccccc1NC(=O)CCS(=O)(=O)c1cc2c3c(c1)CCN3C(=O)CC2	–	inactive: -7.94%
O=C(CCCCCNC(=O)c1ccccc1)N/N=C/c1ccco1	–	inactive: -18.5%
CCc1ccccc1N(CC(=O)O)S(C)(=O)=O	–	inactive: 1.18%
CCC1CCCCN1C(=O)c1nn(-c2ccc(OC)cc2)c(=O)c2c1c1ccccc1n2C (stereo not given)	inconclusive [inhibitor, single point]	–
Cc1ccc2c(c1)[C@@H]1[C@H](CO2)[C@H](c2ccccc2)[C@]2(C)C(=O)N[C@H](C)C(=O)N12	inconclusive [inhibitor, partial curve]	–
CC(C)n1cc(/C=C2/NC(=O)N(c3cccc(Cl)c3)C2=O)c2ccccc21	inconclusive [inhibitor, partial curve]	–
CCN(CC)C1CCN(C(=O)c2cnn(-c3ncc4c(n3)-c3ccccc3CCC4)c2COC)C1 (stereo not given)	–	inactive: -8.26%
CC(=O)Nc1ccc(Nc2cc(C)nc(Nc3ccc(NC(C)=O)cc3)n2)cc1	inconclusive [inhibitor, single point]	–
COc1ccc(C2Nc3ccccc3C(=O)N2Cc2ccco2)cc1COc1ccccc1F (stereo not given)	inconclusive [inhibitor, single point]	–
COc1ccc([N+](=O)[O-])cc1NC(=O)c1ccc(N(Cc2ccccc2Cl)S(C)(=O)=O)cc1	inconclusive [inhibitor, single point]	–

Reference: PubChem BioAssay AID686978 (National Center for Advancing Translational Sciences (NCATS), 2013)
